Results reported in the supplement of paper PMC11417369.
Some of the results follow.

Each sequence was assayed on PF3D7_0420300 AP2 domain 1 (GST-tagged) (assay: gcPBM binding intensity (ln(normalized median fluorescence intensity)); higher = stronger DNA binding).
How it was run: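 DNA-binding domains from P. falciparum, fused to GST and produced in E. coli, were put on an Agilent 4 × 180k double-stranded probe array for 1 h in 1× PBS holding 1% milk, 0.2 mg/ml BSA, 0.5% salmon testes DNA and 0.03% Triton X-100. Probes were primer-extended, 36 bp long and drawn from intergenic genomic regions, with negative controls included. After Alexa488 anti-GST antibody detection and a 488 nm scan, binding intensity was set as the highest Masliner-normalised natural-log median intensity across replicate spots of either probe orientation.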

Sequence | gcPBM binding intensity (ln)
TATATATATATTTTTGCACACATTTTTTAAGGTACA [CACACA_site2145] | 9.53
CATATAATAAATAGATGTACAGACTATATATATATA [XGTACX_site6575] | 9.35
TATAATATTTATATAACACACATATAGATTTATTTA [CACACA_site6269] | 9.21
AAAAGGAAGATATATACACACATACAAATATATATA [CACACA_site5236] | 9.83
CTATTTGGGGGAAGAGTGCATGACATGAATATAAAA | 9.2
ATTAGTATTAGATGATGTACATTTATATTGAAATAT [XGTACX_site8537] | 9.11
CTATATTATAAATATACACACATATCTTAAGTATAA [CACACA_site3096] | 9.33
TTTTTTTTTTTTTTCACACACTAATAATATTATCAT [CACACA_site4417] | 9.27
ATAAATTTTTAAAAATATGAATTATGTAATTTGTGA [CACACA_negctrl_site1621] | 9.1
GAAAACGTTTGAAGTTGTACATATGTATAAAAAGAA [XGTACX_site2304] | 9.43
ATAAAAATACAGTTAACACACATGTGTATTTATATG [CACACA_site7727] | 9.63
TGTTATTTAAATAATTCTTTTTAAAAGATGAATTAT [CACACA_negctrl_site1226] | 8.75
ATGGTCTGTTAAAGATGTACTTTTTAAAAATAAACG [XGTACX_site2583] | 9.01
AACAAACACAGACACACACACACACCCAAATGATTA [CACACA_site2431] | 10.2
ATAATATAACACAAATGTACAAAAAATAAATAAATA [XGTACX_site385] | 9.51
CATACTCACCAACACACACACACACCCATATAGAAT [CACACA_site592] | 10.2
TATATATATACTTAATGTACATATATATATATATAT [XGTACX_site3102] | 9.1
CTTTTTGAAATATTAACACACATTTTGTTAATTAAT [CACACA_site4046] | 9.33
CACAGATAAATTAACACACACACACCCATATATATA [CACACA_site3960] | 10.1
TATTTATAATAGTGTACACAATTATAAACTGAATAT [CACACA_site6041] | 9.26
CAACATATATTAATATGTACATATATATAGATATAT [XGTACX_site4107] | 9.3
TATTATTCATAATTTATCTTTTAAATTAAATCACAA [GTGCAC_negctrl_site288] | 8.66
ATCATAATCATAAAAAGTACAAACGATAAAATAAAT [XGTACX_site3832] | 9.72

Sequence | gcPBM binding intensity (ln)
TTACTTAAGAAACACACACACAAAAAAAAAAAAAAA [CACACA_site946] | 9.72
TTTTTTTCTGTGAGTGCATGTAATAAAATAAATTTA [TGCATGCA_site276] | 8.78
TTCAAAAATATATAATGTACACAAATATAAAAGAAT [XGTACX_site1944] | 9.43
TGTTATTTTAAAAAAAAAATTATTAACTTAAAAAAA [CACACA_negctrl_site1641] | 8.68
ATATTATATAATATACGTACATATATTATGCATAAA [XGTACX_site7895] | 9.11
ATTAAATACATTAACACACACACAAATATGTACATA [CACACA_site7372] | 10.1
TACGTAGCCACACTAACACACACAAATATGCACAAT [CACACA_site8942] | 9.92
TTATTCACTTCTTTTTAAAAAAAAAAAAAAAAAAAA [CACACA_negctrl_site223] | 8.37
TTGTTAATGGTACGAACACACATATAAAGATGCATA [CACACA_site2044] | 9.36
ATAATTTGTGGACACACACACACACCGACATATATA [CACACA_site8718] | 10.2
TTATATGAATTTTAGATTTATAATACAAGAATATTC [CACACA_negctrl_site70] | 8.88
ATTTCGAATATTAAGTGTACAATATAAATATATAAA [XGTACX_site6674] | 9.18
AAAAAAAAAAAAAAAAGTACAAATAAAAAAAAAATA [XGTACX_site4814] | 9.42
TTATTATAATCATTAGTGCATATATTATTTTTATAT | 9.24
TATATACATATATGTACACACATTACAGATGTACAT [CACACA_site966] | 9.45
AATCTAATATAATGCACACATAAAAAAAAAATCAAA [CACACA_site2714] | 9.45
TATATTTACAATAAAACGTTATTTTTTGTTATTTTC [CACACA_negctrl_site612] | 9.22
TTTTTTTTAAAAAACACACACCTAAACAAGATATTT [CACACA_site6541] | 9.5
CATATTTTTAAATACACACACATAAAAAAAAAAAAA [CACACA_site1095] | 9.68
AAATAAAAAAGTAGTACACACTTCACGATATTTTTT [CACACA_site6015] | 9.42
AAAAATATAAACTGCACACACACAAAAAAAGAAAAA [CACACA_site648] | 10.1
AAATATTTTTTTTCTACACACATACAAATATATATT [CACACA_site5325] | 9.63
AATAATAACACCGTGGATACACAATAACAAAGAACT [CACACA_negctrl_site532] | 10.1

Sequence | gcPBM binding intensity (ln)
TTTCATTTAGCTTTTACACACTATATATCATTGATT [CACACA_site6158] | 9.7
TGAGAGTTCTCATATGCACACAAAAAACTTTCATTT [CACACA_site7898] | 9.28
TACATATACATATACACACACACACCCAAATAAATA [CACACA_site1344] | 10.1
TTGCAACTCTTCAATCGTACACATTATTTATTATAT [XGTACX_site1377] | 9.51
GAAAAAAAAAAAAAAAAAAAAAGGAAAAAAGTGAAA [CACACA_negctrl_site996] | 9.21
ATAAAACAATAAAATTGTACATAAATTGATTATACT [XGTACX_site6723] | 9.34
GAATAAATAGACGAGTGTACTTTTTTTTAAAAAAAA [XGTACX_site7880] | 9.08
ACGTTTACGTTATTATGTACGTAATATATCATACCT [XGTACX_site5006] | 9.09
AATTAAATTAGAAGCACACACATATTTATATTTATA [CACACA_site7552] | 9.7
GTATATATTTAAACACGTACACAAAACCCAAAAAAT [XGTACX_site8110] | 9.52
ATACACTCACTCACACGTACAGACAACGGACGATCA [XGTACX_site1097] | 9.53
ATAATATATATTAAACGTACATAAAATAATTATGGA [XGTACX_site1670] | 9.49
TAATATTTATGTTAATGTACAAAAAAACAAAACAAA [XGTACX_site301] | 9.31
GTATGTATATATGTATGTACTTATGTATCATTATTA [XGTACX_site2438] | 9.34
TAAGAATAATGACATAGTACAATTTAATAGATCTAA [XGTACX_site3670] | 9.1
AAGTTTATTTGTTGCACACATATAAGTAGAGAAAAT [CACACA_site3027] | 9.48
TTTTCAAAATAATATTATATCAAATGCTAAAAAGAA [TGCATGCA_negctrl_site588] | 8.96
TACAGATATTATTGCACACATATAAAATACCCCCAA [CACACA_site6014] | 9.89
TTACGTTATATACATACACACCCACGCACAAAAAAA [CACACA_site6537] | 9.68
ATTAAATACTTCGATTGTACAATTTTTTTTTTTTTT [XGTACX_site832] | 9.21
ATATATATATATCACCGTACTTATATAATAACATGA [XGTACX_site4398] | 9.34
TTTTTTTTTTATTTTTGTACATATATTTCAGTATTA [XGTACX_site8396] | 9.19
TAATTATTCTATTAAGTGCATATATTTTTAAAAAGA | 8.88

Sequence | gcPBM binding intensity (ln)
ACAGATATATTTATTTGTACATATCACCAAAATGGA [XGTACX_site5644] | 9.24
ATAATATTCGAGTGTGCACACAAACATACATATATA [CACACA_site3396] | 9.88
ATTTTTATTAAAATATGTACGTATTTTACTCATACA [XGTACX_site5330] | 9.27
ATACAGAAAAAAAACACACACACATAATATACATAC [CACACA_site1933] | 10.1
TTAATATAATAAAATCGTACAAATAAAATATAAAAT [XGTACX_site8730] | 9.5
AAAAATGAGAAACACACACACATATATATATATATA [CACACA_site2228] | 9.65
AACCAATATGAGTATACACACATAAATATAAATATA [CACACA_site5968] | 9.59
AAAAAAAAAAAAGATACACACAAAAATGGATATATA [CACACA_site7069] | 9.67
TAGTGTATGATAATATGTACATACATTTATATAATA [XGTACX_site6330] | 9.11
TCTTTTTTTTTTTTTTTTTCTTCTTCTCAATATAAA [GTGCAC_negctrl_site303] | 9.22
TATGCACACAATATATGTACTTATATATTTTAAAAA [XGTACX_site5482] | 9.13
TTTTATAAAAAAACTATAAAAATATATAGTACTTAA [CACACA_negctrl_site440] | 8.84
CATAATATGTGGACTTTACACACTTGTTTTAAAATT [CACACA_site819] | 9.43
AATAATAAAAAATACACACACATATAAATATATTAC [CACACA_site7597] | 10.1
AGGACACATATATGCAAAAAAAAAAAAAAAAAAAAA [TGCATGCA_negctrl_site427] | 8.44
TTCCGAACGACCTAAAGTACATGTATTTCAACTTTT [XGTACX_site1220] | 9.2
ATAAAAAACAGTGGCACACATTATGTATCCACCTTT [CACACA_site5958] | 9.29
ATGCATATAATTATATGTACATATAAGAAATATATA [XGTACX_site517] | 9.25
CATTTATTATGATAAAGTACTTAAATTAATAGATAA [XGTACX_site3566] | 9.02
AAAAAAAATTCCAGTACACACAATAATACTAAAAAT [CACACA_site2801] | 9.88
